“And” between values parts separate entries of the source, which are not always exact repeats. Equal entries are not always repeated. The list shows a part of the results. The main result of the screen is listed elsewhere. These columns were measured beside it and carry no call. Square brackets hold non-standard residues; d marks the D form. Peptide text beside a SMILES is read from it. ξ: configuration not given here. ξTyr(βOH) = NC(C(=O)O)C(O)c1ccc(O)cc1

What all share (assay): Primary Screen for Target Class Profiling of Small Molecule Inhibitors of Methyltransferases
In experiment [1] the target is Glycine N-methyltransferase (Homo sapiens) (UniProt Q14749). As to conditions: purified enzyme, MTase-Glo SAH luminescence; measured here: GNMT inhibition; at 40 µM; stronger effect = lower value. In a few lines: (§1)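 Each enzyme was reacted with SAM and its substrate, with compounds tested once at 40 uM; SAH formed was read by MTase-Glo luminescence.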
Experiment [2] has as its target Guanidinoacetate N-methyltransferase (Homo sapiens) (UniProt Q14353). As to conditions: purified enzyme, MTase-Glo SAH luminescence; measured here: GAMT inhibition; at 40 µM; stronger effect = lower value. In a few lines: as §1
Experiment [3] deals with Histamine N-methyltransferase (Homo sapiens) (UniProt P50135). As to conditions: purified enzyme, MTase-Glo SAH luminescence; measured here: HNMT inhibition; at 40 µM; stronger effect = lower value. Summed up: as §1
Experiment [4] addresses Nicotinamide N-methyltransferase (Homo sapiens) (UniProt P40261). As to conditions: purified enzyme, MTase-Glo SAH luminescence; measured here: NNMT inhibition; at 40 µM; stronger effect = lower value. Summed up: as §1
Experiment [5] addresses Phenylethanolamine N-methyltransferase (Homo sapiens) (UniProt P11086). As to conditions: purified enzyme, MTase-Glo SAH luminescence; measured here: PNMT inhibition; at 40 µM; stronger effect = lower value. Summed up:
as §1
% is set by controls: 0 for no effect and ±100 for the full control effect.

Consider `Cn1ccnc1CN1CCOc2cc([S+](=O)([O-])Nc3ccccc3)ccc2C1`, for which the activity change, negative = inhibition is -3.33% in experiment [1]; -7.32% in experiment [2]; -0.16% in experiment [3]; -7.84% in experiment [4]; -1.42% in experiment [5].

On to `O=C1NCCCCCN(S(=O)(=O)c2ccc3c(c2)OCCO3)[C@H]2CCC[C@@H]12`, for which the activity change, negative = inhibition is -6.14% in experiment [1]; -5.74% in experiment [2]; -2.89% in experiment [3]; -5.69% in experiment [4]; -0.383% in experiment [5].

For the compound `CCCN1CCN(CCCNC(=O)c2cc3n(n2)CC(C)(C(=O)NC2CCCC2)N(CC)C3=O)CC1` (stereo not given), the activity change, negative = inhibition in experiment [1] was 4.32%; in experiment [2], 0.474%; in experiment [3] it was 2.14%; in experiment [4] it was 5.24%; in experiment [5] it was 4.17%.

With `CCOc1ccc(-c2cc3n(n2)CC(C)(C(=O)NC2CCCCC2)N(CCCOC)C3=O)cc1` (stereo not given), the activity change, negative = inhibition in experiment [1] is -6.29%; in experiment [2], 3.74%; in experiment [3], -0.016%; in experiment [4], 5.13%; in experiment [5], 0.314%.

In the case of `CCOCc1nc(C2CCCN2S(=O)(=O)c2cn(C)cn2)no1` (stereo not given), the activity change, negative = inhibition in experiment [1] was -4.28%; in experiment [2], -8.23%; in experiment [3], -1.25%; in experiment [4] it was -14.3%; in experiment [5] it was -2.62%.

`Cc1cc(Nc2nc(N[C@@H](C)c3ncc(F)cn3)ncc2Cl)n[nH]1`: the activity change, negative = inhibition in experiment [1] was -9.32% and -16.8%; in experiment [2] it was -4.49%; in experiment [3] it was 5.05% and -7.28%; in experiment [4] it was -20.6% and -21.1%; in experiment [5] it was -1.18% and 21.2%.

Regarding `C=C1CC[C@@H]2[C@@](C)(CO[C@@H]3O[C@H](CO)C(O)[C@H](O)C3O)[C@H](O)CC[C@@]2(C)[C@@H]1CC/C(C)=C/CO` (stereo not given in full), the activity change, negative = inhibition is -0.268% in experiment [1]; -4.11% in experiment [2]; 5.95% in experiment [3]; -15% in experiment [4]; -8.93% in experiment [5].

With `O=C(CCc1nnc2n(Cc3ccc(F)cc3)c(=O)c3ccccc3n12)NCCc1ccc(Cl)cc1`, the activity change, negative = inhibition in experiment [1] was -4.95%; in experiment [2] it was -4.45%; in experiment [3] it was -3.81%; in experiment [4], -5.35%; in experiment [5], -6.46%.

Take `COc1cccc(C(=O)Cn2nc3n(C(C)C)c(=O)c4ccc(C(=O)NC(C)C)cc4n3c2=O)c1`: the activity change, negative = inhibition in experiment [1] is 0.892%; in experiment [2], 0%; in experiment [3] it was 7.91%; in experiment [4], 0.176%; in experiment [5], 4.12%.

Regarding `O=C(Nc1cc(F)ccc1F)N1Cc2c(sc3c2CCCC3)-n2cccc2C1c1ccccc1` (stereo not given), the activity change, negative = inhibition is -0.394% in experiment [1]; 2.67% in experiment [2]; -3.73% in experiment [3]; -5.22% in experiment [4]; 1.13% in experiment [5].

Turning to `NC(=O)c1cccc(-c2cc(OC(=O)NC3CCCCC3)ccc2O)c1`, the activity change, negative = inhibition in experiment [1] is 4.09%; in experiment [2], 8.93%; in experiment [3], 9.91%; in experiment [4] it was -14.3%; in experiment [5], 5.47%.

For the compound `CC1(C)CC[C@]2(C(=O)O)[C@H](O)C[C@]3(C)C(=CCC4[C@@]5(C)CC[C@H](O[C@@H]6O[C@H](CO[C@@H]7OC[C@H](O)[C@H](O)[C@H]7O[C@@H]7OC[C@@H](O)[C@H](O)[C@H]7O)[C@@H](O)[C@H](O)[C@H]6O[C@@H]6O[C@H](CO)[C@@H](O)[C@H](O)[C@H]6O)C(C)(C)C5CC[C@]43C)[C@@H]2C1` (stereo not given in full), the activity change, negative = inhibition in experiment [1] was 0.429%; in experiment [2], -3.86%; in experiment [3], 6.55%; in experiment [4] it was -14.4%; in experiment [5], -3.94%.

Consider `COc1ccc(-c2cc3n(n2)CC(C)(C(=O)NCc2ccccc2)N(CCc2ccc(Cl)cc2)C3=O)cc1` (stereo not given), for which the activity change, negative = inhibition in experiment [1] amounted to 5.66%; in experiment [2], 4.39%; in experiment [3] it was 8.56%; in experiment [4], 12.5%; in experiment [5] it was 2.86%.

On to `O=C(c1cc(-c2ccccc2)nc2ccccc12)N1CCc2c(nc[nH]c2=O)C1`, for which the activity change, negative = inhibition in experiment [1] was -7.97%; in experiment [2] it was -2.38%; in experiment [3] it was -2.64%; in experiment [4] it was -13.5%; in experiment [5], -6.02%.

Take `NS(=O)(=O)C#Cc1ccccc1`: the activity change, negative = inhibition in experiment [1] is -15.3%; in experiment [2], -3.77% and 7.02%; in experiment [3] it was 0.834%; in experiment [4] it was -4.17% and -6.15%; in experiment [5] it was 8.16% and 3.19%.

With `CC(=O)Nc1c2n(c3ccccc13)CC(C)(C(=O)NCCC(C)C)N(Cc1cccc(Cl)c1)C2=O` (stereo not given), the activity change, negative = inhibition is -6.01% in experiment [1]; 3.38% in experiment [2]; -4.68% in experiment [3]; -5.11% in experiment [4]; -2.13% in experiment [5].

As to `Cc1cc2c(cc3n2CC(C)(C(=O)NC2CCCCCCC2)N(CCc2ccc(Cl)cc2)C3=O)o1` (stereo not given), the activity change, negative = inhibition is -4.28% in experiment [1]; -5.06% in experiment [2]; 6.38% in experiment [3]; -4.47% in experiment [4]; -6.13% in experiment [5].

For the compound `CCC(CC)Nc1ncnc2c1CN(C1CCC1)C(=O)CN2C`, the activity change, negative = inhibition was -9.96% in experiment [1]; -7.53% in experiment [2]; -8.64% in experiment [3]; -17.4% in experiment [4]; -9.1% in experiment [5].

With `CCNC(=O)Nc1ccc([C@H]2OCC(=O)N(Cc3scnc3C)[C@@H]2CO)cc1`, the activity change, negative = inhibition in experiment [1] is -4.82%; in experiment [2] it was -12.6%; in experiment [3] it was -2.26%; in experiment [4], -7.34%; in experiment [5], -5.19%.

Take `CC(C)(O)CNc1nc(Nc2ccnc(C(F)(F)F)c2)nc(-c2cccc(C(F)(F)F)n2)n1`: the activity change, negative = inhibition in experiment [1] was -6.6%; in experiment [2] it was 0.418%; in experiment [3], -7.02%; in experiment [4], -8.29%; in experiment [5], 0.876%.

For the compound `CN1C[C@H](O)C[C@H]1c1nnc2n1CCN(C(=O)C1CCCCC1)CC2`, the activity change, negative = inhibition in experiment [1] is -1.5%; in experiment [2] it was 0.787%; in experiment [3] it was 2.96%; in experiment [4] it was -3.84%; in experiment [5], -12.9%.

As for `c1ccc(CN2CCC3(CCCc4ccccc43)CC2)cc1`, the activity change, negative = inhibition was -9.34% in experiment [1]; 2.23% in experiment [2]; -3.78% in experiment [3]; -8.13% in experiment [4]; 2.86% in experiment [5].

As for `OC/C=C/C=C/[C@H]1Cc2cc(O)cc(O)c2O1`, the activity change, negative = inhibition in experiment [1] is -11.4%; in experiment [2], -14.6%; in experiment [3] it was 0.749%; in experiment [4] it was -20.5%; in experiment [5], -12.6%.

Turning to `Cc1ccc(C(=O)C(C)CN2CCCCC2)cc1` (stereo not given), the activity change, negative = inhibition was -3.82% in experiment [1]; -0.015% in experiment [2]; 2.07% in experiment [3]; -15.3% in experiment [4]; 3.1% in experiment [5].

As for `CC(C)C1NC(=O)CNC(=O)C2CCCN2C(=O)C(Cc2c[nH]c3ccccc23)NC(=O)CNC(=O)C(C(O)c2ccc(O)cc2)NC(=O)CNC1=O` (stereo not given) (cyclo(G[ξTyr(βOH)]GWPGV); configuration not given here), the activity change, negative = inhibition in experiment [1] was 0%; in experiment [2], 5.86%; in experiment [3], 11.5%; in experiment [4] it was -4.38%; in experiment [5], 5.81%.

Regarding `CC1=C[C@@H](CNS(C)(=O)=O)[C@H](C(C)C)C[C@H]1CC(=O)O`, the activity change, negative = inhibition in experiment [1] was -7.05%; in experiment [2], -12.7%; in experiment [3], -5.36%; in experiment [4], -14.5%; in experiment [5], -13.1%.

Take `Cc1ccc(NC(=O)CSc2nnc3n(CCc4ccccc4)c(=O)c4ccccc4n23)cc1C`: the activity change, negative = inhibition in experiment [1] was -0.016%; in experiment [2], 0%; in experiment [3], 4.22%; in experiment [4], 0.174%; in experiment [5], 1%.

`CCCCC1C(=O)N(c2ccccc2)N(c2ccccc2)C1=O`: the activity change, negative = inhibition was -0.506% in experiment [1]; 12.7% in experiment [2]; 4.07% in experiment [3]; -3.83% in experiment [4]; 3.3% in experiment [5].

Take `CCOC(=O)c1cc2n(n1)CC(C)(C(=O)NCc1ccccc1OC)N(CCc1ccccc1Cl)C2=O` (stereo not given): the activity change, negative = inhibition in experiment [1] was -2.59%; in experiment [2] it was 0%; in experiment [3], 2.66%; in experiment [4], -12%; in experiment [5], -0.877%.

(Values after PubChem BioAssay AID1745853 (National Center for Advancing Translational Sciences (NCATS), 2022).)
